This is an account of results in the supplement of paper PMC4967469.

The IC50 comes from the fitted curve, where viability falls to half of the control; fits outside the tested doses are given as limits. AUC, from the same fit, is the share of area under the viability curve across the 256-fold dose range; it is 1 without any effect and falls as sensitivity rises. A top dose marked as inferred was derived from the fitted curves, not read from the paper.

Compound in the test: CCn1cc(-c2ccnc3[nH]c(-c4cccc(CN(C)C)c4)cc23)c(-c2ccc(NC(=O)N(C)C)cc2)n1 [GSK1070916]
Put plainly: Viability of human cancer cell lines after 72 h of drug (GDSC screen). To be noted: top dose inferred. The procedure:
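Human cancer cell lines in 384-well plates, medium with 10% serum, drug for 72 h over a 256-fold dose range (nine 2-fold or five 4-fold steps up to the top dose). Adherent lines were fixed and stained with the nucleic acid dye Syto60, suspension lines read with resazurin; signal relative to control wells, capped at 0 and 100%. One two-parameter sigmoid per drug and line, fitted in a mixed model over all curves with the slope shared within a line.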
On to “KYSE-520 (oesophagus, adherent, top dose 2.56 µM)”, for which the AUC came to 0.935 and the IC50 is greater than 2560 nM.

Turning to “L-363 (myeloma, suspension, top dose 2.56 µM)”, the AUC amounted to 0.905 and the IC50 is greater than 2560 nM.

“L-428 (Hodgkin lymphoma, suspension, top dose 2.56 µM)”: the AUC amounted to 0.972 and the IC50 is greater than 2560 nM.

For the cell line “L-540 (Hodgkin lymphoma, suspension, top dose 2.56 µM)”, the AUC was found to be 0.907 and the IC50 was greater than 2560 nM.

On to “L-1236 (Hodgkin lymphoma, suspension, top dose 2.56 µM)”, for which the AUC came to 0.992 and the half-inhibitory concentration (IC50) was greater than 2560 nM.

As for “LAMA-84 (chronic myeloid leukaemia, suspension, top dose 2.56 µM)”, the AUC turned out to be 0.849 and the IC50 came to 1970 nM.

Turning to “LAN-6 (neuroblastoma, adherent, top dose 2.56 µM)”, the AUC is 0.898 and the concentration for half-maximal inhibition (IC50) was greater than 2560 nM.

Turning to “LB373-MEL-D (melanoma, adherent, top dose 2.56 µM)”, the AUC is 0.99 and the 50% inhibitory concentration (IC50) was greater than 2560 nM.

Turning to “LB647-SCLC (small cell lung carcinoma, semi-adherent, top dose 2.56 µM)”, the AUC came out at 0.614 and the 50% inhibitory concentration (IC50) amounted to 344 nM.

“LB771-HNC (head and neck, adherent, top dose 2.56 µM)”: the AUC was 0.963 and the half-maximal inhibitory concentration (IC50) is greater than 2560 nM.

Turning to “LB831-BLC (bladder, adherent, top dose 2.56 µM)”, the AUC stood at 0.95 and the IC50 is greater than 2560 nM.

As for “LB996-RCC (kidney, adherent, top dose 2.56 µM)”, the AUC was determined as 0.983 and the IC50 was greater than 2560 nM.

On to “LB1047-RCC (kidney, adherent, top dose 2.56 µM)”, for which the AUC was found to be 0.978 and the half-maximal inhibitory concentration (IC50) is greater than 2560 nM.

As to “LB2241-RCC (kidney, adherent, top dose 2.56 µM)”, the AUC stood at 0.984 and the IC50 is greater than 2560 nM.

“LB2518-MEL (melanoma, adherent, top dose 2.56 µM)”: the AUC turned out to be 0.975 and the half-maximal inhibitory concentration (IC50) is greater than 2560 nM.

In the case of “LC4-1 (lymphoblastic leukaemia, suspension, top dose 2.56 µM)”, the AUC came out at 0.615 and the IC50 worked out at 343 nM.

Regarding “LC-1-sq (lung squamous cell carcinoma, adherent, top dose 2.56 µM)”, the AUC stood at 0.963 and the IC50 is greater than 2560 nM.

As to “LCLC-103H (large cell lung carcinoma, adherent, top dose 2.56 µM)”, the AUC is 0.937 and the IC50 is greater than 2560 nM.

As to “LN-18 (glioma, adherent, top dose 2.56 µM)”, the AUC turned out to be 0.988 and the IC50 is greater than 2560 nM.

As for “LN-229 (glioma, adherent, top dose 2.56 µM)”, the AUC was determined as 0.983 and the IC50 was greater than 2560 nM.

Take “LN-405 (glioma, adherent, top dose 2.56 µM)”: the AUC is 0.978 and the IC50 was greater than 2560 nM.

In the case of “LNCaP-Clone-FGC (prostate, adherent, top dose 2.56 µM)”, the AUC was determined as 0.932 and the IC50 was greater than 2560 nM.

For “LNZTA3WT4 (glioma, adherent, top dose 2.56 µM)”, the AUC was determined as 0.982 and the IC50 is greater than 2560 nM.

Take “LOU-NH91 (lung squamous cell carcinoma, adherent, top dose 2.56 µM)”: the AUC turned out to be 0.978 and the 50% inhibitory concentration (IC50) was greater than 2560 nM.

Turning to “LOUCY (T-cell lymphoblastic leukaemia, suspension, top dose 2.56 µM)”, the AUC turned out to be 0.018 and the half-inhibitory concentration (IC50) is less than 10 nM.

Consider “LOXIMVI (melanoma, semi-adherent, top dose 2.56 µM)”, for which the AUC was 0.941 and the IC50 was greater than 2560 nM.

Turning to “LP-1 (myeloma, suspension, top dose 2.56 µM)”, the AUC was determined as 0.932 and the IC50 was greater than 2560 nM.

Regarding “LS-123 (large intestine, adherent, top dose 2.56 µM)”, the AUC was found to be 0.899 and the IC50 is greater than 2560 nM.

For the cell line “LS-180 (large intestine, adherent, top dose 2.56 µM)”, the AUC stood at 0.975 and the 50% inhibitory concentration (IC50) is greater than 2560 nM.

Regarding “LS-411N (large intestine, adherent, top dose 2.56 µM)”, the AUC is 0.73 and the IC50 amounted to 849 nM.

Take “LS-513 (large intestine, adherent, top dose 2.56 µM)”: the AUC was 0.83 and the IC50 was found to be 1690 nM.

Take “LS-1034 (large intestine, adherent, top dose 2.56 µM)”: the AUC stood at 0.849 and the IC50 was 2230 nM.

For the cell line “LU-65 (large cell lung carcinoma, suspension, top dose 2.56 µM)”, the AUC was found to be 0.94 and the half-inhibitory concentration (IC50) was greater than 2560 nM.

As to “LU-99A (large cell lung carcinoma, adherent, top dose 2.56 µM)”, the AUC stood at 0.962 and the half-maximal inhibitory concentration (IC50) was greater than 2560 nM.

As to “LU-134-A (small cell lung carcinoma, suspension, top dose 2.56 µM)”, the AUC worked out at 0.448 and the IC50 worked out at 114 nM.

In the case of “LU-135 (small cell lung carcinoma, suspension, top dose 2.56 µM)”, the AUC was found to be 0.94 and the IC50 was greater than 2560 nM.

On to “LU-139 (small cell lung carcinoma, suspension, top dose 2.56 µM)”, for which the AUC came to 0.864 and the IC50 was greater than 2560 nM.

Turning to “LU-165 (small cell lung carcinoma, suspension, top dose 2.56 µM)”, the AUC amounted to 0.961 and the IC50 was greater than 2560 nM.

Take “LXF-289 (lung adenocarcinoma, adherent, top dose 2.56 µM)”: the AUC was found to be 0.82 and the IC50 is 1440 nM.

Turning to “LoVo (large intestine, adherent, top dose 2.56 µM)”, the AUC was determined as 0.987 and the IC50 was greater than 2560 nM.

With “M14 (melanoma, adherent, top dose 2.56 µM)”, the AUC was 0.987 and the IC50 was greater than 2560 nM.

For “M059J (glioma, adherent, top dose 2.56 µM)”, the AUC was determined as 0.869 and the IC50 is greater than 2560 nM.

As for “MC116 (B-cell lymphoma, suspension, top dose 2.56 µM)”, the AUC is 0.999 and the half-inhibitory concentration (IC50) was greater than 2560 nM.

With “MC-CAR (haematopoietic neoplasm, suspension, top dose 2.56 µM)”, the AUC was determined as 0.844 and the half-maximal inhibitory concentration (IC50) was determined as 1550 nM.

Take “MC-IXC (neuroblastoma, adherent, top dose 2.56 µM)”: the AUC came out at 0.918 and the IC50 amounted to 1990 nM.

For the cell line “MCF7 (breast, adherent, top dose 2.56 µM)”, the AUC came out at 0.986 and the IC50 is greater than 2560 nM.

Consider “MDA-MB-157 (breast, adherent, top dose 2.56 µM)”, for which the AUC is 0.971 and the IC50 is greater than 2560 nM.

In the case of “MDA-MB-175-VII (breast, adherent, top dose 2.56 µM)”, the AUC turned out to be 0.987 and the IC50 is greater than 2560 nM.

In the case of “MDA-MB-231 (breast, adherent, top dose 2.56 µM)”, the AUC was 0.972 and the IC50 was greater than 2560 nM.

With “MDA-MB-330 (breast, adherent, top dose 2.56 µM)”, the AUC is 0.965 and the 50% inhibitory concentration (IC50) is greater than 2560 nM.

Turning to “MDA-MB-361 (breast, adherent, top dose 2.56 µM)”, the AUC stood at 0.988 and the IC50 is greater than 2560 nM.

On to “MDA-MB-415 (breast, adherent, top dose 2.56 µM)”, for which the AUC was determined as 0.983 and the 50% inhibitory concentration (IC50) was greater than 2560 nM.

With “MDA-MB-436 (breast, adherent, top dose 2.56 µM)”, the AUC stood at 0.982 and the concentration for half-maximal inhibition (IC50) was greater than 2560 nM.

With “MDA-MB-453 (breast, adherent, top dose 2.56 µM)”, the AUC was found to be 0.973 and the IC50 is greater than 2560 nM.

For the cell line “MDST8 (large intestine, adherent, top dose 2.56 µM)”, the AUC is 0.967 and the IC50 is greater than 2560 nM.

Turning to “ME-1 (acute myeloid leukaemia, suspension, top dose 2.56 µM)”, the AUC turned out to be 0.904 and the 50% inhibitory concentration (IC50) is greater than 2560 nM.

Regarding “ME-180 (cervix, adherent, top dose 2.56 µM)”, the AUC came to 0.876 and the 50% inhibitory concentration (IC50) is greater than 2560 nM.

For “MEG-01 (chronic myeloid leukaemia, suspension, top dose 2.56 µM)”, the AUC came to 0.835 and the half-maximal inhibitory concentration (IC50) is 1550 nM.

For “MEL-JUSO (melanoma, adherent, top dose 2.56 µM)”, the AUC stood at 0.879 and the IC50 was greater than 2560 nM.

Regarding “MES-SA (uterus, adherent, top dose 2.56 µM)”, the AUC is 0.952 and the IC50 was greater than 2560 nM.

On to “MFE-280 (endometrium, adherent, top dose 2.56 µM)”, for which the AUC worked out at 0.879 and the 50% inhibitory concentration (IC50) is greater than 2560 nM.

Regarding “MFE-296 (endometrium, adherent, top dose 2.56 µM)”, the AUC turned out to be 0.969 and the IC50 was greater than 2560 nM.

For “MFE-319 (endometrium, adherent, top dose 2.56 µM)”, the AUC was determined as 0.988 and the half-maximal inhibitory concentration (IC50) was greater than 2560 nM.

In the case of “MFH-ino (soft tissue, adherent, top dose 2.56 µM)”, the AUC stood at 0.977 and the concentration for half-maximal inhibition (IC50) is greater than 2560 nM.

As a reminder, the IC50 is the midpoint of a concentration-inhibition curve.
